Measured values: PubChem BioAssay AID624417 (National Center for Advancing Translational Sciences (NCATS), 2012)
Hit rate of the full screen: of about 410,000 compounds, about 6,400 (1.6%) were called active. Inconclusive means that the source gave no clear call. Such entries were picked first, then a sample of the others. The call rests on the fitted dose curve; in most records, active means well fitted inhibition curve with a large enough effect; inconclusive means small, poorly fitted or top-dose-only effect; inactive means no such curve, though single readings can be large or run the other way. No potency is given beside an inconclusive call; the fits are too rough.

Molecular target: Glucagon-like peptide 1 receptor (Homo sapiens) (UniProt P43220)
Assay: qHTS of GLP-1 Receptor Inverse Agonists (Inhibition Mode); further: nearly all actives have a fitted effect of over 55% in size
Conditions: HEK293 GLP-1R CRE-luciferase, luminescence, 24 h, GLP-1R form is constitutively active; series mostly up to 38.3 µM
How it was run: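 HEK293 cells stably co-expressing constitutively active GLP-1R and a cAMP-responsive luciferase reporter were seeded in DMEM with 10% Nu serum, given compounds after 12 h, and incubated 24 h at 37 deg C. Luminescence was then read.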
Potency means the concentration at half of the fitted maximal effect; tags describe the fitted curve by direction and shape.

Sequence of UniProt P43220 (P43220 whole entry, looked up): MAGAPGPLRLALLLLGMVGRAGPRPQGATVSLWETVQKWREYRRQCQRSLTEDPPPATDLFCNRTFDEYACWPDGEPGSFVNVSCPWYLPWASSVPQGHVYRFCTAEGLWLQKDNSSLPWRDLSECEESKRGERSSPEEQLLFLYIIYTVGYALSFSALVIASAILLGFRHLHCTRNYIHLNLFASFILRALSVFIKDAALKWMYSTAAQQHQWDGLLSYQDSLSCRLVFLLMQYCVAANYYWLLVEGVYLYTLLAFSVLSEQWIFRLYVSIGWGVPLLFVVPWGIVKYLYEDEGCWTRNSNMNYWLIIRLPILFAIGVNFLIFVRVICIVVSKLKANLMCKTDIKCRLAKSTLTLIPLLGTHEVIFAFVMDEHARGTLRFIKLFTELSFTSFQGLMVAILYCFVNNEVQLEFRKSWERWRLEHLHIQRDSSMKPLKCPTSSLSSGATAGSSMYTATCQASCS

| Compound | Potency |
| --- | --- |
| O=C(Nc1ccc(Br)cn1)c1cccc(-c2cc3ccccc3oc2=O)c1 | inconclusive [inhibitor, single point] |
| CC(C)C(=O)N1CCC1(C)C(=O)Nc1cccc(Oc2ccccc2)c1 (centres undefined) | inconclusive [inhibitor, single point] |
| Cc1ccc(-n2c(=O)c3c(cnn3C)n(CC(=O)Nc3cccc(C)c3)c2=O)cc1 | inactive |
| Cc1cccc(NC(=O)CN2CCC(C(=O)c3ccc4c(c3)OCCO4)CC2)c1 | inconclusive [inhibitor, single point] |
| CCc1nc2c(OCc3ccc(C(=O)OC)cc3)cccn2c1N(C)C(=O)CC(C)C | inconclusive [inhibitor, partial curve, poor fit] |
| Cc1nn(C2CCS(=O)(=O)C2)c(Cl)c1/C=C/C(=O)OCC(=O)c1cc(C)n(-c2ccc(F)cc2)c1C (centres undefined) | inconclusive [inhibitor, single point] |
| Cn1c(=O)n(C)c2cc(N3CCOCC3)c(NS(=O)(=O)c3ccc(Cl)cc3)cc21 | inactive |
| COc1ccc(NC2(c3ccccc3)OC(=O)c3ccccc32)cc1 (centres undefined) | inconclusive [inhibitor, partial curve, poor fit] |
| CC(C)c1ccc(CN(C)C(=O)c2ccc(S(=O)(=O)NCc3ccco3)cc2)cc1 | inconclusive [inhibitor, partial curve, poor fit] |
| COc1ccccc1CCN=C(N)NS(=O)(=O)c1cccs1 | inactive |
| COc1ccccc1CCNC(=O)c1cccc(NC(=O)CC2SC(N3CCCCC3)=NC2=O)c1 (centres undefined) | inactive |
| COc1cc(-c2nc3ccccc3s2)ccc1O | inactive |
| CCc1cccc(C)c1Nc1c(-c2ccc(N(C)C)cc2)nc2cnccn12 | inconclusive [inhibitor, single point] |
| CC1(C(=O)NS(=O)(=O)c2cccc(F)c2)CCN1C(=O)CCC1CCCC1 (centres undefined) | inactive |
| COc1cccc(CNC(=O)c2ccc3nc(CCc4ccccc4)oc3c2)c1OC | inconclusive [inhibitor, single point] |
| CCC(=O)NC(c1cccs1)c1cc([N+](=O)[O-])c2cccnc2c1O (centres undefined) | inactive |
| O=C(NCc1ccc(F)cc1)c1cc(C2CCCCN2S(=O)(=O)Cc2ccccc2)on1 (centres undefined) | inactive |
| Cn1c(-c2ccc(F)c(F)c2)cc2onc(-c3ccccc3)c2c1=O | inconclusive [inhibitor, single point] |
| CC(NC(=S)Nc1ccccc1Cl)C(c1ccccc1)N1CCOCC1 (centres undefined) | inconclusive [inhibitor, partial curve, poor fit] |
